Test results published in the supplement of paper PMC8183993.
Where a name gives a salt, the structure may show the parent alone. ± gives the standard deviation of the averaged measurements. Whole data set: some 3,200 compounds, median “nuclei count (viability) relative to DMSO” near 99, cut for the lowest 2% near 16. The list shows a part of the results.

Each compound was assayed on U2OS (assay: nuclei count (viability) relative to DMSO (% of DMSO); higher = more viable cells). Conditions: 10 µM; 24 h.
Method: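 Primary image-based screen in U2OS cells: compounds at 10 uM for 24 h, then a 1 h o-propargyl-puromycin (OPP) pulse, click labelling, and high-throughput microscopy. Mean cytoplasmic OPP intensity and nuclei count were normalised to DMSO wells within each plate (DMSO = 100) and averaged over triplicate plates.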
Work on CCC(=O)OCC(=O)[C@@]1(OC(=O)CC)[C@@H](C)C[C@H]2[C@@H]3CCC4=CC(=O)C=C[C@]4(C)[C@@]3(F)[C@@H](O)C[C@@]21C [Betamethasone Dipropionate (Diprolene)] yielded a nuclei count of 107. For CC1(C)O[C@@H]2C[C@H]3[C@@H]4C[C@H](F)C5=CC(=O)CC[C@]5(C)[C@H]4[C@@H](O)C[C@]3(C)[C@]2(C(=O)CO)O1 [Flurandrenolide], the nuclei count was 110. C[C@H]1C[C@H]2[C@@H]3CCC4=CC(=O)C=C[C@]4(C)[C@H]3C(=O)C[C@]2(C)[C@@]1(O)C(=O)CO [Betapar (Meprednisone)] gave a nuclei count of 107. Compound Cc1ccc(S(=O)(=O)OCC(=O)Nc2ccc(C(=O)O)c(O)c2)cc1 has a nuclei count of 106. O=c1[nH]c(=O)n([C@H]2C[C@H](O)[C@@H](CO)O2)cc1I [Idoxuridine] was tested, and the nuclei count was 96.9. For CN1CCN(c2ccc3nc(-c4c(N)c5c(F)cccc5[nH]c4=O)[nH]c3c2)CC1 [Dovitinib (TKI-258)], the nuclei count was 72 ± 36. C=CCNC1=C2C[C@@H](C)C[C@H](OC)[C@H](O)[C@@H](C)/C=C(\C)[C@H](OC(N)=O)[C@@H](OC)/C=C\C=C(/C)C(=O)NC(=CC1=O)C2=O showed a nuclei count of 39.3. With Cc1cccc(N(C)C(=S)Oc2ccc3ccccc3c2)c1 [Tolnaftate] the nuclei count was 102. Work on O=C(O)c1cccnc1 [Niacin] yielded a nuclei count of 105. CCCCc1oc2ccccc2c1C(=O)c1cc(I)c(OCCN(CC)CC)c(I)c1 [Amiodarone hydrochloride] gave a nuclei count of 89.8. For CCCCc1oc2ccccc2c1C(=O)c1cc(I)c(OCCN(CC)CC)c(I)c1 [Amiodarone], the nuclei count was 91.5. Compound O=C(Cc1ccccc1)Nc1cccc(C(=O)Nc2ccccc2C(=O)O)c1 has a nuclei count of 115. Work on CCN1CCCC1CNC(=O)c1cc(S(N)(=O)=O)ccc1OC (centres undefined) [Sulpiride] yielded a nuclei count of 92.8. COc1ccc(-c2ccc3cc(C(=O)O)ccc3c2)cc1C12CC3CC(CC(C3)C1)C2 [Adapalene] showed a nuclei count of 105. COc1ccc(-c2cc(=O)c3c(OC)c(OC)c(OC)c(OC)c3o2)cc1 [Tangeretin (Tangeritin)] was tested, and the nuclei count was 99.4. In the case of CCO/C(O)=C1\C(C)=NC(c2ccccc2)=C(C(=O)OCc2ccc([N+](=O)[O-])cc2)C1C#Cc1ccccc1 (centres undefined), the nuclei count is reported as 104. Compound O=C(O)c1ccc(C=C2SC(=S)N(c3cccc(C(F)(F)F)c3)C2=O)cc1 has a nuclei count of 101. CC12CC3CC(C)(C1)CC(N)(C3)C2 [Memantine Hydrochloride] was tested, and the nuclei count was 108. For CC12CC3CC(C)(C1)CC(N)(C3)C2 [Memantine hydrochloride], the nuclei count was 103. CN1C(C(=O)Nc2ccccn2)=C(O)c2sc(Cl)cc2S1(=O)=O [Lornoxicam (Xefo)] showed a nuclei count of 89.1. N[C@@H](Cc1cc(I)c(O)c(I)c1)C(=O)O [3,5-Diiodo-L-tyrosine] gave a nuclei count of 105. Compound O=C(Nc1cccnc1)N1CCC(Cc2cccc(Oc3ccc(C(F)(F)F)cn3)c2)CC1 has a nuclei count of 94.7. With O=C(Nc1ccc([N+](=O)[O-])cc1Cl)c1cc(Cl)ccc1O [Niclosamide] the nuclei count was 79.1 ± 22. Cc1cc(C)nc(NS(=O)(=O)c2ccc(NC(=S)NC(=O)COc3ccc(Br)cc3Cl)cc2)n1 gave a nuclei count of 94.5. For CCOc1ccc(Cc2nccc3cc(OCC)c(OCC)cc23)cc1OCC [Ethaverine hydrochloride], the nuclei count was 103. With C#C[C@]1(O)CC[C@H]2[C@@H]3CCC4=Cc5oncc5C[C@]4(C)[C@H]3CC[C@@]21C [Danazol] the nuclei count was 102. Compound CC(C)c1nc(CN(C)C(=O)N[C@@H](CCN2CCOCC2)C(=O)N[C@H](CC[C@H](Cc2ccccc2)NC(=O)OCc2cncs2)Cc2ccccc2)cs1 [Cobicistat (GS-9350)] has a nuclei count of 96.2. Work on Cc1cccc(-c2nn3c(c2-c2ccnc4ccc(C(N)=O)cc24)CCC3)n1 yielded a nuclei count of 99.8. Cc1ccc(C(=O)Nc2cccc(C(F)(F)F)c2)cc1Nc1nc(-c2cccnc2)nc2c1cnn2C gave a nuclei count of 48. With CCOC(=O)N1c2ccc(C(F)(F)F)cc2[C@@H](N(Cc2cc(C(F)(F)F)cc(C(F)(F)F)c2)C(=O)OC)C[C@H]1CC the nuclei count was 101. Compound COc1ccc(-c2cc(=O)c3c(OC)c(OC)c(OC)c(OC)c3o2)cc1OC [Nobiletin (Hexamethoxyflavone)] has a nuclei count of 96.6. In the case of N#Cc1c(Oc2ccc(F)c(NC(=O)Cc3cccc(C(F)(F)F)c3)c2)ccc2nc(NC(=O)C3CC3)sc12, the nuclei count is reported as 90.1. For CCC[C@@H]1C[C@@H](C(=O)N[C@@H]([C@H]2O[C@H](SC)[C@H](O)[C@@H](O)[C@H]2O)[C@@H](C)O)N(C)C1 [Lincomycin HCl (Lincocin)], the nuclei count was 86.4. CCC[C@@H]1C[C@@H](C(=O)N[C@@H]([C@H]2O[C@H](SC)[C@H](O)[C@@H](O)[C@H]2O)[C@@H](C)O)N(C)C1 [Lincomycin hydrochloride] gave a nuclei count of 97. CO[C@H]1C[C@@H]2CC[C@@H](C)[C@@](O)(O2)C(=O)C(=O)N2CCCC[C@H]2C(=O)O[C@H]([C@H](C)C[C@@H]2CC[C@@H](OC(=O)C(C)(CO)CO)[C@H](OC)C2)CC(=O)[C@H](C)/C=C(\C)[C@@H](O)[C@@H](OC)C(=O)[C@H](C)C[C@H](C)/C=C/C=C/C=C/1C was tested, and the nuclei count was 89.2. Work on CO[C@H]1C[C@@H]2CC[C@@H](C)[C@@](O)(O2)C(=O)C(=O)N2CCCC[C@H]2C(=O)O[C@H]([C@H](C)C[C@@H]2CC[C@@H](OC(=O)C(C)(CO)CO)[C@H](OC)C2)CC(=O)[C@H](C)/C=C(\C)[C@@H](O)[C@@H](OC)C(=O)[C@H](C)C[C@H](C)/C=C/C=C/C=C/1C [Temsirolimus (Torisel)] yielded a nuclei count of 85.1. With CN1CCCN=C1/C=C/c1cccs1 [Pyrantel tartrate] the nuclei count was 116. In the case of CCN(CC)CCN[C@@H](C(=O)OCCC(C)C)c1ccccc1 [Camylofine chlorhydrate], the nuclei count is reported as 102. Work on CC/C=C\C/C=C\C/C=C\C/C=C\C/C=C\C/C=C\CCC(=O)O [Docosa-4Z,7Z,10Z,13Z,16Z,19Z-hexaenoic acid] yielded a nuclei count of 96.9.
